The campaign covered roughly 190,000 compounds. About 270 (0.14%) were called active. The shares of active, inactive and inconclusive entries below differ from those in the screen.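 How the source made its calls: active means GTP binding activity at least 20% away from the 100% baseline, either lowered as inhibitor or raised as activator; inconclusive means flagged as likely green fluorescent, judged across all proteins in the well; inactive means the rest.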
molecular target: GTPase HRas (Homo sapiens) (UniProt P01112); test: HRas wt fluorescent GTP binding changes, either direction – biochemical, wildtype, bead-based flow cytometry, multiplex, primary screen (AID 759); details: GST-Ras wt beads, Bodipy-FL-GTP binding, at 10 µM, actives lie on both sides;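 further: 0% = unlabeled GTP competition control and 100% = no-compound control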
Chain of UniProt P01112 (P01112 whole entry, looked up): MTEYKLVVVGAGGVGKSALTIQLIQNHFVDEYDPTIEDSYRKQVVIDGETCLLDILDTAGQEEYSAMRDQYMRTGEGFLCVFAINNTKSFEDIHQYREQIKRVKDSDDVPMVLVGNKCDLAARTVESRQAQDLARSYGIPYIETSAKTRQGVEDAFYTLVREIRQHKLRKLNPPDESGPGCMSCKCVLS

**Q.** Cc1noc(C)c1COc1ccc(C(=O)OCC(=O)NCc2ccccc2Cl)cc1 was tested. Which GTP binding activity did it give?
**A.** inactive: 99%

**Q.** CCc1nnc(NC(=O)CSc2nc(SC)ns2)s1 was tested. Which GTP binding activity did it give?
**A.** inactive: 99%

**Q.** CCOC(=O)N1CCC(N2Cc3cccc(C(=O)Nc4ccc(CC)cc4)c3C2=O)CC1 was tested. Which GTP binding activity did it give?
**A.** inconclusive: 91%

**Q.** For Cc1[nH]c2ccccc2c1CCNC(=O)c1c(N)no[n+]1[O-], which GTP binding activity is on record?
**A.** inconclusive: 91%

**Q.** Cc1ccc(Sc2ncnc3onc(C)c23)c(C)c1 was tested. Which GTP binding activity did it give?
**A.** inconclusive: 96%

**Q.** Which GTP binding activity does the source give for COc1ccc(C(=O)N/C(=C\c2ccco2)C(=O)NCCCn2ccnc2)cc1 here?
**A.** inconclusive: 104%

**Q.** Which GTP binding activity does the source give for S=C(NCc1cccs1)Nc1cccc(Cl)c1 here?
**A.** inconclusive: 102%

**Q.** With CCCCOC(=O)Nc1nc2ccc(OC)cc2s1 as the compound, how does the GTP binding activity read?
**A.** inconclusive: 105%

**Q.** How did the GTP binding activity turn out when COc1ccc(-c2[nH]nc3oc(=O)cc(C)c23)cc1 was run?
**A.** inconclusive: 101%

**Q.** For CCCc1nnc(SCC(=O)N2CCCCC2C)n1CCOC (stereo not drawn), which GTP binding activity is on record?
**A.** inactive: 91%

**Q.** How did the GTP binding activity turn out when CCOC(=O)Cn1cc(C(=O)C2CC2)c2ccccc21 was run?
**A.** inconclusive: 90%

**Q.** How did the GTP binding activity turn out when CCO[C@H]1OC(C(=O)N2CCN(C)CC2)=C[C@@H](c2ccc(Br)cc2)[C@@H]1CCCO was run?
**A.** inactive: 98%

**Q.** For COc1ccc(CSC(=N)N)cc1[N+](=O)[O-], which GTP binding activity is on record?
**A.** inconclusive: 103%

**Q.** Which GTP binding activity does the source give for CC(C)OCCCNC(=S)N1CCC(C(=O)c2ccc3c(c2)OCCO3)CC1 here?
**A.** inactive: 95%

**Q.** How did the GTP binding activity turn out when COC(=O)Nc1[nH]ncc1[N+](=O)[O-] was run?
**A.** inactive: 97%

**Q.** How did the GTP binding activity turn out when CC(SC(=S)N(C)Cc1cccs1)C(=O)O (stereo not drawn) was run?
**A.** active: 140% [activator]

**Q.** Which GTP binding activity does the source give for Cc1ccc([N+](=O)[O-])cc1NC(=O)c1ccc(C(C)(C)C)cc1 here?
**A.** inconclusive: 108%

**Q.** With NC(=O)c1ccccc1NC(=O)/C=C/c1cccc(Cl)c1 as the compound, how does the GTP binding activity read?
**A.** inconclusive: 108%

**Q.** With COc1ccc(-c2nc(CSCC(=O)NCc3ccc4c(c3)OCO4)c(C)o2)cc1 as the compound, how does the GTP binding activity read?
**A.** inconclusive: 104%

**Q.** For CC1CCCCC1NC(=O)COC(=O)c1ccccn1 (stereo not drawn), which GTP binding activity is on record?
**A.** inconclusive: 103%

**Q.** N#CC(C#N)=Cc1ccc(OCC(=O)N2CCOCC2)cc1 was tested. Which GTP binding activity did it give?
**A.** inactive: 97%

**Q.** With Cc1ccccc1-n1nc(C)c2cc(C(=O)NCc3cccnc3)sc21 as the compound, how does the GTP binding activity read?
**A.** inconclusive: 104%

**Q.** N#Cc1c(N)nc2c(c1N)CC(CCl)O2 (stereo not drawn) was tested. Which GTP binding activity did it give?
**A.** inconclusive: 89%

**Q.** For CCn1cc(CNC(=S)Nc2cccc3ccccc23)cn1, which GTP binding activity is on record?
**A.** inactive: 93%

**Q.** How did the GTP binding activity turn out when Cc1cc(C(=O)NCC(C)C)c2ccccc2n1 was run?
**A.** inconclusive: 103%

**Q.** How did the GTP binding activity turn out when CN(Cc1cnn(-c2ccc(F)cc2)c1)Cc1nc(Cc2ccccc2)no1 was run?
**A.** inconclusive: 93%

**Q.** Which GTP binding activity does the source give for O=c1c2cccnc2n(-c2ccccc2)n1Cc1ccc(Cl)cc1 here?
**A.** inconclusive: 95%

**Q.** How did the GTP binding activity turn out when COc1ccc(/C=C(\NC(=O)c2ccccc2)C(=O)OC[C@@H]2CCC[N+]3(C)CCCCC23)cc1OC (stereo partly drawn) was run?
**A.** inactive: 100%

Source: PubChem BioAssay AID759 (NMMLSC, 2007)
